The results in this text go back to PubChem BioAssay AID463173 (ICCB-Longwood Screening Facility, Harvard Medical School, 2010).

Hit rate of the full screen: of about 52,000 compounds, about 4,300 (8.3%) were called active. Rule as the data show it: active = survival mostly below about 52% (no sharp cut-off); inactive = mostly above about 56%. The list shows a part of the results.

The test system of the assay is DeltatarO mutant. The experiment in a line: S. aureus survival, RN4220 and DeltatarO strains – OD600, teichoic acid synthesis inhibitors, primary screen (AID 463173). The settings on record: S. aureus RN4220 wild type/DeltatarO growth, OD600, 18 h, active compounds read low, screened at 18.75 µg/mL (by protocol).
In the case of `CCCN(Cc1cccs1)C(=O)Nc1cc(Cl)ccc1C`, the survival was inactive: 64%.
As for `Cc1nn(CC(=O)NCc2ccc(F)cc2)c2ccccc12`, the survival is inactive: 82%.
On to `Cc1nc(N2CCCC2)ncc1C(=O)NCc1cccc(Cl)c1`, for which the survival is inactive: 90%.
The figure for `O=C(Nc1ccccc1)/C(=C/c1ccccc1)NC(=O)c1ccco1` is inactive: 110%; for `CC(C)Cc1ccc(S(=O)(=O)N2CCC(c3ccncc3)CC2)cc1` it is inactive: 130%.
Regarding `COc1ccccc1N1CCN(C(=O)Cn2c(=O)n3nc(-c4ccc(C)cc4)nc3c3ccccc32)CC1`, the survival was inactive: 86%.
Then `COc1ccc(NC(=O)c2cccc(N3CCCS3(=O)=O)c2)cc1OC`, with inactive: 67%; and `COC(=O)c1ccc(NC(=O)CC2C(=O)N(c3cccc(OC)c3)C(=O)N2Cc2ccco2)cc1` (stereo not given), with inactive: 70%; and `COc1ccc(C)cc1NC(=O)CN1c2ccccc2S(=O)(=O)c2ccccc21`, with inactive: 74%.
Turning to `Cc1nnc(N2C(=O)c3oc4ccccc4c(=O)c3C2c2ccc(C(C)(C)C)cc2)s1` (stereo not given), the survival is inactive: 134%.
Then `CCc1ccc(NC(=O)CSc2nc3ccccc3nc2Cc2ccc(C)cc2)cc1`, with inactive: 73%.
With `COc1ccc(-c2nc3cc(C(C)C)ccc3o2)cc1NC(=O)c1ccccc1[N+](=O)[O-]`, the survival is inactive: 50%.
Then `COc1ccc(Cl)cc1-n1nnc(-c2nc(-c3ccccc3)no2)c1C`, with inactive: 94%.
`Cc1ccc(Cn2c(CN3CCC(C(=O)NCc4ccccc4C)CC3)cc3ccccc32)cc1`: the survival was inactive: 76%.
The figure for `COc1ccc2c(c1)c(=O)c(C(=O)c1ccc(C)c(C)c1)cn2CC(=O)Nc1ccc2c(c1)OCCO2` is inactive: 76%; for `COc1ccc(NC(=O)C2COc3ccccc3C2)cc1Cl` (stereo not given) it is inactive: 99%; for `C=CCNC(=O)c1ccc2nc(-c3ccco3)c(-c3ccco3)nc2c1` it is inactive: 116%.
As to `CCc1ccc(CNC(=O)c2c3c(nc4ccccc24)C(=O)N(C2CCCCC2)C3)cc1`, the survival was active: 37%.
As to `CCOC(=O)c1ccc(N2C(=O)c3[nH]nc(-c4ccc(C)cc4)c3C2c2ccc(O)c(OCC)c2)cc1` (stereo not given), the survival is inactive: 87%.
Then `CCOC(=O)c1c(C)[nH]c(C)c1S(=O)(=O)N(C)CC(=O)Nc1cc(Cl)ccc1C`, with inactive: 94%; and `CCCn1c(=O)c2sccc2n2c(CCCC(=O)N3CCN(c4ccccc4OC)CC3)nnc12`, with inactive: 98%.
On to `Cc1ccccc1OCCCCn1c(-c2ccc(Cl)cc2)nc2ccccc2c1=O`, for which the survival is inactive: 71%.
On to `COc1cc2c(=O)c(C(=O)c3ccc(C)c(C)c3)cn(Cc3ccccc3F)c2cc1OC`, for which the survival is inactive: 105%.
On to `CCC(C)NC(=O)CSc1nc2cc3c(cc2c(=O)n1CCCC(=O)NCCc1ccc(OC)c(OC)c1)OCO3` (stereo not given), for which the survival is inactive: 86%.
As for `COCCNC(=O)c1ccc2c(=O)n(CCc3ccccc3)c(SCC(=O)CC(=O)OC)nc2c1`, the survival was inactive: 88%.
Turning to `COc1ccccc1CNC(=O)c1ccc(CS(=O)(=O)c2c(Cl)cccc2Cl)o1`, the survival is inactive: 61%.
The figure for `Cc1cccc(OCCSc2nc3ccccc3n2CC(=O)N2CCOCC2)c1` is active: 44%.
`c1ccc2c(NC3CCCC3)nc(N3CCNCC3)nc2c1`: the survival was inactive: 26%.
Take `CCC(C(=O)NCc1ccccc1)N(C(=O)Cn1nnc(-c2cccs2)n1)c1ccccc1OC` (stereo not given): the survival was inactive: 84%.
Regarding `COc1ccccc1NC(=O)CSc1nnc(-c2ccccc2C)o1`, the survival was inactive: 85%.
With `O=C(NCc1ccccc1F)C1CCN(c2nnc(-n3cccc3)s2)CC1`, the survival was inactive: 83%.
As for `COc1cc(NC(=O)CCc2c(C)nn(-c3ccc(N4CCOCC4)nn3)c2C)cc(OC)c1OC`, the survival is inactive: 105%.
As to `O=C1CC(Cc2ccccc2)C(=O)N1Cc1ccco1` (stereo not given), the survival was inactive: 76%.
Then `COc1ccc2c(c1)c(=O)c(C(=O)c1ccccc1)cn2CC(=O)Nc1ccc2c(c1)OCCO2`, with inactive: 98%; and `COC(=O)c1cc(-c2ccccc2)oc1CN`, with inactive: 91%; and `CCn1c(SCC#N)nnc1-c1ccc(S(=O)(=O)N2CCCC2)cc1`, with inactive: 97%.
On to `CC1=C(C(=O)OCc2ccc(C)cc2)C(c2ccccc2F)CC(=O)N1` (stereo not given), for which the survival is inactive: 119%.
For `CCOc1ccccc1N1CCN(C(=O)C2CCN(Cc3ccc(OC)cc3)CC2)CC1`, the survival was inactive: 98%.
Take `CC(C)Sc1nc2sc3c(c2c(=O)n1Cc1ccccc1)CCCC3`: the survival was active: 13%.
Regarding `COC(=O)c1cc2oc3ccccc3c2n1Cc1nc(-c2ccccc2Cl)oc1C`, the survival was inactive: 82%.
With `CC1(C)CC(=O)c2cc(-c3nc(-c4ccccc4)cs3)c(=O)[nH]c2C1`, the survival is inactive: 88%.
`Cc1ccc(NC(=O)C2CCN(S(=O)(=O)c3c(C)noc3C)CC2)cc1`: the survival was inactive: 105%.
Turning to `O=C(NCCN1CCN(c2ccccc2)CC1)Nc1cccc(Br)c1`, the survival is inactive: 68%.
The figure for `Cc1nnc(C)n1-c1ccc(C(=O)Nc2cccc(Br)c2)cc1` is inactive: 97%.
For the compound `Cc1c(Cl)cccc1NC(=O)CCCn1nc(C)c2sc3ccccc3c2c1=O`, the survival was inactive: 75%.
As for `COCCCNC(=O)NC(CCC(C)C)c1c(-n2cccc2)sc2c1CCN(C)C2` (stereo not given), the survival was inactive: 72%.
Take `COc1cccc(N2CCN(c3c4c(nc5nncn35)CCC4)CC2)c1`: the survival was inactive: 71%.
With `CCC1CCCCN1S(=O)(=O)c1ccc(NC(=O)c2cc(=O)c3c(C)cc(C)cc3o2)cc1` (stereo not given), the survival is inactive: 45%.
`Cc1cccc(Cn2cc3c(=O)n(CC(=O)Nc4c(C)cccc4C)nc-3c3cc(F)ccc32)c1`: the survival is inactive: 79%.
`Cc1cccc2c1-c1sc(C(=O)N3CCN(c4ccccc4)CC3)cc1CO2`: the survival is inactive: 65%.
With `CCCCNS(=O)(=O)c1ccc2nc(-c3cccnc3)cc(C(=O)NCCCOC(C)C)c2c1`, the survival is inactive: 75%.
Take `Cc1ccc2nc(NCc3ccccc3)c3nnnn3c2c1`: the survival was inactive: 134%.
With `CCOc1cccc(Nc2nn(-c3ccc(OC(F)(F)F)cc3)nc2C(C)=O)c1`, the survival was inactive: 90%.
Take `CCOC(=O)c1cnc2c(C)c(Cl)ccc2c1NCCc1ccc(OC)c(OC)c1`: the survival is active: 17%.
Turning to `CCOc1ccccc1CNC(=O)Cc1ccc(NC(=O)N2CCCCc3ccccc32)cc1`, the survival is inactive: 120%.
Consider `COc1ccc(Nc2nc(-c3cccc(Cl)c3)c3c(n2)-c2ccccc2OC3)cc1`, for which the survival was inactive: 62%.
The figure for `O=C(OCc1ccccc1)N1CCOCCN(C(=O)OCc2ccccc2)CCOCC1` is inactive: 75%; for `CCOc1ccc(NC(=O)CSc2nc3ccsc3c(=O)n2C(C)CC)cc1` (stereo not given) it is inactive: 94%.
Regarding `CCOc1ccc(CCNC(=O)CCc2c(C)nc3c(c(C)nn3-c3ccc(C)c(C)c3)c2C)cc1`, the survival is inactive: 60%.
Turning to `COc1cc(-c2nc(S(=O)(=O)c3ccc(Br)cc3)c(N3CCOCC3)o2)cc(OC)c1OC`, the survival is inactive: 84%.
As to `COc1ccc(-c2noc(N(c3ccc(F)c(Cl)c3)c3nc(-c4ccc(OC)c(OC)c4)no3)n2)cc1OC`, the survival is inactive: 68%.
The figure for `COc1ccc(Br)cc1C(=O)Nc1cccc2ccc(C)nc12` is inactive: 73%; for `CCc1nc2nc(C)cc(Nc3cc(Cl)ccc3C)n2n1` it is inactive: 65%.
On to `CCc1ccc(CNC(=O)c2ccc3c(Cl)c4c(nc3c2)CCCC4)cc1`, for which the survival was inactive: 51%.
As for `COc1ccccc1CNC(=O)c1cccc(N2CCCS2(=O)=O)c1`, the survival is inactive: 75%.
With `Cc1ccc(N(CC(=O)NCCc2ccccc2C)S(=O)(=O)N(C)C)cc1`, the survival is inactive: 75%.
Consider `COc1ccccc1CNC(=O)Cn1c(=O)oc2cc(S(=O)(=O)N3CCCC3)ccc21`, for which the survival was inactive: 119%.
Regarding `CCOC(=O)c1ccc(NC(=O)C2CC(=O)NC(=Nc3ccc(C)c(C)c3)S2)cc1` (stereo not given), the survival was active: 47%.
Turning to `Cc1cccc(NC(=O)Nc2ccc(F)cc2)n1`, the survival is inactive: 119%.
As for `CCCCN(C)CCNC(=O)c1ccc(Cn2c(=O)[nH]c3cc(OC)c(OC)cc3c2=O)cc1`, the survival was inactive: 83%.
Take `CCOC(=O)c1cnn(-c2ccc(C(=O)Nc3ccc(OC(F)(F)F)cc3)cc2)c1N`: the survival was inactive: 124%.
Take `Cc1cc(N2CCN(c3cccc(C)c3C)CC2)n2cnnc2n1`: the survival is inactive: 99%.
Take `O=C(CCCCCN1C(=O)c2ccccc2C1=O)Nc1nccs1`: the survival is inactive: 101%.
As for `CC(=O)Nc1ccc(NC(=O)C2CCCN(S(=O)(=O)c3ccc4c(c3)CCCC(=O)N4)C2)cc1` (stereo not given), the survival was inactive: 84%.
Then `COc1ccccc1CNC(=O)Cn1c(=O)nc(-c2ccccc2)c2ccccc21`, with inactive: 94%.
For the compound `COC(=O)c1ccc(NC(=O)CN(Cc2ccccc2)S(=O)(=O)c2ccc(Cl)cc2)cc1`, the survival was active: 40%.
As to `CCCSc1nnc2c(n1)OC(c1cccs1)Nc1ccc(Br)cc1-2` (stereo not given), the survival is active: 30%.
For the compound `Cc1c(Cl)cccc1NC(=O)Nc1ccc2snnc2c1`, the survival is active: -4%.
The figure for `CCn1nc(C)c(NC(=O)CCSc2nc(-c3ccco3)cc(C(F)(F)F)n2)c1C` is inactive: 56%.
With `Oc1c(C(c2ccccc2F)N2CCCC2)sc2nc(-c3ccco3)nn12` (stereo not given), the survival was inactive: 81%.
For `O=C(NCCc1ccccc1)c1ccc(CS(=O)(=O)c2ccc(Cl)cc2)o1`, the survival was inactive: 94%.
Regarding `COc1cccc(C(=O)n2nc(-c3cccnc3)nc2NCc2ccc(F)cc2)c1`, the survival was inactive: 71%.
The figure for `CCN(CC)CCSc1nnc2c3cc(F)ccc3n(CC)c2n1` is inactive: 171%.
Take `O=C(NCc1ccccc1Cl)c1nnc(Cc2ccc(Cl)cc2)o1`: the survival was inactive: 93%.
Consider `COc1ccc(-c2noc(CSc3nnc(C)n3-c3ccc(C)c(C)c3)n2)c(OC)c1`, for which the survival was inactive: 60%.
Consider `COc1ccc(-c2nc(SCC(=O)NCCc3ccccc3)n[nH]2)cc1`, for which the survival is inactive: 88%.
The figure for `Cc1ccc2onc(CC(=O)N3CCN(c4ccccc4)CC3)c2c1` is active: 40%.
Then `CCOc1ccc(NC(=O)C(C)n2c(=O)cc(C)c3c(C)nn(-c4ccccc4)c32)cc1` (stereo not given), with inactive: 83%; and `CCc1ccc(OCC(=O)Nc2ccc3c(c2)c2ccccc2n3CC)c(Br)c1`, with active: 6%.
Then `N#C/C(=C\c1cc(Br)c(O)c(Br)c1)c1nc2ccccc2c(=O)[nH]1`, with inactive: 90%.
